The full ranking holds about 33,000 sequences; the median of “E-score (-0.5 to 0.5)” is about -0.035, and the highest 2% start at about 0.35. The list shows a part of the results.
These sequences were tested against T1, Pdr3 (UniProt P33200) (assay: PBM E-score (8-mer binding enrichment) (E-score (-0.5 to 0.5)); higher = stronger / more preferred TF binding; most listed sequences are background and not binding sites). Settings: protein concentration: 200 nM; construct: GST-full length.
T1 sequence: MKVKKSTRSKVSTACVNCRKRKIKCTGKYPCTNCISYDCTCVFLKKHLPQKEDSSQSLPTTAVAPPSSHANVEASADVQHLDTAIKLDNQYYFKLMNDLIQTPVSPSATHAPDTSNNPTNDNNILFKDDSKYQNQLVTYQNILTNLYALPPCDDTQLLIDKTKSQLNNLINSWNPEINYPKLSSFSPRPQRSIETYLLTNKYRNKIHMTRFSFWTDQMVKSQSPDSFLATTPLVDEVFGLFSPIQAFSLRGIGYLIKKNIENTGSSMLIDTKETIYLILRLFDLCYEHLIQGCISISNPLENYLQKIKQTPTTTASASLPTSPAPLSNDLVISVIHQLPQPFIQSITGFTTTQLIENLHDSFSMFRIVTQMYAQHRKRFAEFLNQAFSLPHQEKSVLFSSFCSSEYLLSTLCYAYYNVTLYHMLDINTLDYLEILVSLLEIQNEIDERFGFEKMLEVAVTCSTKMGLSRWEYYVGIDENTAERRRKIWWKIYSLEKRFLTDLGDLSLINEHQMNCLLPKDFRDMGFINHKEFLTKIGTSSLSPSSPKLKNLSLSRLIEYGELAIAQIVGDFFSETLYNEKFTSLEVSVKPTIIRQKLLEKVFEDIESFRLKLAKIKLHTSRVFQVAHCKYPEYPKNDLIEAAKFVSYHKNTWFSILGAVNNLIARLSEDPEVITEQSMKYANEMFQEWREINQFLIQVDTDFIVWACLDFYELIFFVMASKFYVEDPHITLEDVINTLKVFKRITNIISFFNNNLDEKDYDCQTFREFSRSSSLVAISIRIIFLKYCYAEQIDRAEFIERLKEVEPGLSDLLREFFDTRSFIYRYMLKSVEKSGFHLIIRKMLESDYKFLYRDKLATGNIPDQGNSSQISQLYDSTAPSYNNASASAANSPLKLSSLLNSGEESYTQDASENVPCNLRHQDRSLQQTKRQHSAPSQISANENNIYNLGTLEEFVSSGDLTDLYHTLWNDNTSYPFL
In short: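 Each ungapped eight-base word and its reverse complement, pooled, received an E-score from the Universal PBM Analysis Suite. Underlying scans, normalised with masliner, recorded fluorescent anti-GST bound to GST-tagged yeast transcription factors. These were applied at about 100-200 nM to universal all-10-mer Agilent arrays double-stranded by primer extension.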

For AGGCCCAG, which “PBM E-score” value is on record?
The value was -0.196.

Which “PBM E-score” value does the source give for GATAGCCA here?
The value was 0.035.

CATGCTAC was tested. Which “PBM E-score” value did it give?
The value was -0.0835.

How did the “PBM E-score” value turn out when ACTATATA was run?
The value was 0.0653.

For CCCGACCC, which “PBM E-score” value is on record?
The value was 0.126.

ACCGAGTC was tested. Which “PBM E-score” value did it give?
Its value is -0.168.

With ACCGACAG as the sequence, how does the “PBM E-score” value read?
The value was 0.0513.

Which “PBM E-score” value does the source give for CTGATAAA here?
Its value is 0.0563.

With GCACAGCA as the sequence, how does the “PBM E-score” value read?
The value was -0.107.

For AACAACGT, which “PBM E-score” value is on record?
Its value is -0.175.

Which “PBM E-score” value does the source give for GCACAGAA here?
Its value is -0.0107.

Which “PBM E-score” value does the source give for AGACGATC here?
Its value is -0.267.

ACTGGGAC was tested. Which “PBM E-score” value did it give?
Its value is -0.0292.

CCGGAGTA was tested. Which “PBM E-score” value did it give?
The value was 0.367.

With CATACCAA as the sequence, how does the “PBM E-score” value read?
The value was -0.00359.

CTGCGTTC was tested. Which “PBM E-score” value did it give?
Its value is 0.125.

How did the “PBM E-score” value turn out when ACGTGCCA was run?
The value was -0.154.

With ATCGTCTG as the sequence, how does the “PBM E-score” value read?
Its value is -0.0834.

For GGACCGTA, which “PBM E-score” value is on record?
The value was -0.136.

How did the “PBM E-score” value turn out when CCGAGCTC was run?
Its value is 0.217.

With AGCAACAT as the sequence, how does the “PBM E-score” value read?
Its value is -0.117.

For CCAGTGCA, which “PBM E-score” value is on record?
Its value is -0.22.

Which “PBM E-score” value does the source give for AGAAGATC here?
Its value is -0.00552.

CCCCGGGA was tested. Which “PBM E-score” value did it give?
Its value is 0.417.

For ACTACCCA, which “PBM E-score” value is on record?
Its value is -0.328.

For CCTGCGGC, which “PBM E-score” value is on record?
Its value is -0.0139.

How did the “PBM E-score” value turn out when AAACCACC was run?
Its value is -0.0783.

With AAAGAATG as the sequence, how does the “PBM E-score” value read?
Its value is -0.0818.

With GACCTGGA as the sequence, how does the “PBM E-score” value read?
Its value is -0.219.

With AACCTCCT as the sequence, how does the “PBM E-score” value read?
Its value is -0.183.

Which “PBM E-score” value does the source give for GCCCCACC here?
Its value is 0.202.

For AGTGGCCC, which “PBM E-score” value is on record?
Its value is 0.137.

How did the “PBM E-score” value turn out when CAATCCGA was run?
Its value is 0.271.

For AGCCTAAC, which “PBM E-score” value is on record?
The value was -0.162.

For AGGTCATA, which “PBM E-score” value is on record?
The value was -0.118.

With GGACTAAC as the sequence, how does the “PBM E-score” value read?
Its value is -0.0477.

Which “PBM E-score” value does the source give for CAGTCGAG here?
Its value is -0.147.

How did the “PBM E-score” value turn out when ACATAAAT was run?
Its value is -0.0382.

CCTCGTCC was tested. Which “PBM E-score” value did it give?
The value was -0.116.

Which “PBM E-score” value does the source give for CCTCTGAA here?
The value was -0.00096.

For GGTATGAC, which “PBM E-score” value is on record?
Its value is -0.0226.

With ATATGTTC as the sequence, how does the “PBM E-score” value read?
Its value is 0.223.

CCGTGCTC was tested. Which “PBM E-score” value did it give?
Its value is 0.243.

With GGCCCAGA as the sequence, how does the “PBM E-score” value read?
The value was -0.149.

How did the “PBM E-score” value turn out when AAGCCGAT was run?
Its value is 0.188.

With TTACAAAA as the sequence, how does the “PBM E-score” value read?
Its value is -0.0386.

For ATAATCAC, which “PBM E-score” value is on record?
Its value is 0.035.

Which “PBM E-score” value does the source give for ACCGGCGC here?
Its value is 0.228.

With ATGTTGTG as the sequence, how does the “PBM E-score” value read?
Its value is -0.0732.

How did the “PBM E-score” value turn out when CATTCTTA was run?
Its value is -0.00508.

How did the “PBM E-score” value turn out when AGGAACTG was run?
The value was -0.208.

Which “PBM E-score” value does the source give for ACCGCCAA here?
Its value is -0.0762.

How did the “PBM E-score” value turn out when TATTCCAA was run?
The value was -0.091.

For TCGACCAA, which “PBM E-score” value is on record?
The value was -0.16.

Which “PBM E-score” value does the source give for GTGGCGTA here?
Its value is -0.0399.

For GCGTAGAC, which “PBM E-score” value is on record?
The value was -0.222.

For CTGTTACC, which “PBM E-score” value is on record?
The value was -0.056.

How did the “PBM E-score” value turn out when TGAGATAA was run?
The value was 0.116.

Which “PBM E-score” value does the source give for CATGCTGG here?
The value was -0.249.

For CTCTGATC, which “PBM E-score” value is on record?
The value was -0.116.

For ATCCAAGA, which “PBM E-score” value is on record?
Its value is -0.0502.

CGCCAAAA was tested. Which “PBM E-score” value did it give?
Its value is 0.125.

For ACTTCGAC, which “PBM E-score” value is on record?
The value was -0.0852.

GACGAGCA was tested. Which “PBM E-score” value did it give?
The value was -0.137.

With ACGACAGA as the sequence, how does the “PBM E-score” value read?
Its value is -0.0457.

Which “PBM E-score” value does the source give for GTGGAATA here?
Its value is 0.122.

For ACTCCGCG, which “PBM E-score” value is on record?
The value was 0.397.

How did the “PBM E-score” value turn out when GGACCGGA was run?
Its value is 0.382.

AGGACCGG was tested. Which “PBM E-score” value did it give?
Its value is 0.133.

GAATATCA was tested. Which “PBM E-score” value did it give?
Its value is 0.13.

How did the “PBM E-score” value turn out when CGTGAAGA was run?
Its value is -0.0942.

Which “PBM E-score” value does the source give for CTGGACGC here?
Its value is -0.118.

How did the “PBM E-score” value turn out when ACCAAAAC was run?
The value was -0.0262.

With ACCGGGAG as the sequence, how does the “PBM E-score” value read?
Its value is 0.144.

Which “PBM E-score” value does the source give for ATGTCTCC here?
The value was 0.169.

For TAACACTA, which “PBM E-score” value is on record?
The value was -0.0344.

For ATGTGGAC, which “PBM E-score” value is on record?
The value was 0.0146.

Which “PBM E-score” value does the source give for CTACTTGA here?
The value was -0.238.

Which “PBM E-score” value does the source give for GCTCTAGA here?
The value was -0.146.

Which “PBM E-score” value does the source give for ATGGACGA here?
The value was 0.151.

Which “PBM E-score” value does the source give for GGCAGCCA here?
Its value is 0.0184.

How did the “PBM E-score” value turn out when CCTTCTTA was run?
The value was -0.185.

How did the “PBM E-score” value turn out when CAGATCCC was run?
The value was 0.0667.

CACAACCG was tested. Which “PBM E-score” value did it give?
The value was 0.243.

ATAAGATC was tested. Which “PBM E-score” value did it give?
The value was -0.0639.

How did the “PBM E-score” value turn out when AACGGTCA was run?
The value was 0.146.

— the supplement of paper PMC3334620
